Assay results as given in patent publication US20030211998A1, “Novel seventeen amino acid peptide (Peptide P) for treating ischemia and reperfusion injury” (UNIVERSITY OF KENTUCKY RESEARCH FOUNDATION, priority 2001, published 2003).

Tested on: mice subjected to 1 hour focal middle cerebral arterial occlusion (MCAO) ischemia
Assay: Murine ischemia/reperfusion model: MABP, pO2, pCO2, pH, rectal temperature
Conditions: post ischemia

## CC[C@H](C)[C@H](NC(=O)[C@H](CO)NC(=O)[C@H](Cc1c[nH]cn1)NC(=O)[C@H](Cc1ccccc1)NC(=O)[C@H](Cc1ccccc1)NC(=O)[C@H](CC(=O)O)NC(=O)CNC(=O)[C@@H](NC(=O)[C@@H](NC(=O)[C@H](CO)NC(=O)[C@H](C)NC(=O)[C@@H](NC(=O)[C@H](CC(=O)O)NC(=O)[C@H](C)NC(=O)[C@H](Cc1ccccc1)NC(=O)[C@@H](C)NC(=O)[C@@H](N)Cc1ccc(O)cc1)C(C)C)[C@@H](C)O)[C@@H](C)CC)C(N)=O [Peptide P, Tyr-D-Ala-Phe-Ala-Asp-Val-Ala-Ser-Thr-Ile-Gly-Asp-Phe-Phe-His-Ser-Ile-NH2]
  differences in MABP, pO2, pCO2, pH or rectal temperature versus control animals: no significant differences
